The campaign covered roughly 150,000 compounds. About 540 (0.36%) showed an effect of 50% or more. The list shows a part of the results.

The subject of this assay is Plasmodium falciparum. Put plainly: Primary screen in NF54 nanoGlo assay, in single point, at 2uM, 72h; a lower Z score goes with more inhibition. The conditions noted are these: timepoint 72 hour. It counts as functional, Erythrocyte.
By % Inhibition is commonly meant the drop in the measured response relative to a control, in per cent. On to `C[C@H](CNC(=O)OC(C)(C)C)NC(=O)c1ccc(Br)c(F)c1`, for which the “% Inhibition” value amounted to 11% and the Z score was -1.13.
The matching figures for `COCCN1C(=O)c2c(NC(C)=O)c3cc(F)ccc3n2C[C@@]1(C)C(=O)NC1CCCCCC1`: -1% and 0.1.
For `O=C(NCCOc1ccccc1)c1ccc(OCc2ccccc2)cc1`, in that order: -2% and 0.25.
The matching figures for `O=C(Nc1nncs1)c1occc1-c1ccccc1`: -6% and 0.51.
On to `Cn1ncc2c(N3CCCC3)nc(N3CCC(N4CCCCC4)CC3)nc21`, for which the “% Inhibition” value worked out at 6% and the Z score is listed as -1.18.
For `CN(C)[C@@H](CNc1cc(C(F)(F)F)ccn1)c1cccnc1`, the “% Inhibition” value is on record as -5% and the Z score worked out at 0.44.
For `CCOc1ccccc1CN1CCc2cc(OC)c(OC)cc2[C@@H]1c1cccc(Cl)c1`, the “% Inhibition” value is recorded as -6% and the Z score worked out at 1.18.
As for `CCO[C@@H](C)c1nc(CN(C)C(=O)C(C)(C)C)cs1`, the “% Inhibition” value is listed as -6% and the Z score is 0.8.
With `Cc1noc(C)c1CN(C)S(=O)(=O)Cc1noc2ccccc12`, the “% Inhibition” value was -12% and the Z score is 1.93.
For `Cc1cc(C(=O)N2CCCCCCNC(=O)[C@@H]3C[C@@H](c4nc(Cc5ccccc5)no4)C[C@@H]32)n(C)n1`, in that order: 5% and -0.57.
For `C[C@H](NC(=O)c1ccco1)C(=O)Nc1cc(S(=O)(=O)N2CCCC2)ccc1OCC(F)(F)F`, in that order: 1% and -0.1.
Regarding `Cc1ccc(CN[C@H]2CCS(=O)(=O)C2)o1`, the “% Inhibition” value was -4% and the Z score was determined as 0.54.
On to `CN(Cc1ccncn1)C(=O)CCc1nc2ccccc2s1`, for which the “% Inhibition” value is given as -8% and the Z score came out at 1.58.
On to `CC(C)c1ncc(OCc2ccccc2)c(C(=O)O)n1`, for which the “% Inhibition” value is -1% and the Z score was found to be 0.14.
On to `Cc1cn2c(CNC[C@H](C)CN3CCCCC3)c(C)nc2s1`, for which the “% Inhibition” value was -13% and the Z score is given as 1.29.
As to `CCN(CCN1CCCC1)C(=O)[C@H](OC)c1ccccc1`, the “% Inhibition” value came out at 0% and the Z score was -0.02.
For the compound `Cc1cc(CNC(=O)C#CC2CCN(C(=O)OC(C)(C)C)CC2)no1`, the “% Inhibition” value is recorded as -5% and the Z score came to 0.93.
Take `O=C(CS(=O)(=O)CC1CCCCC1)N1CCC(c2ccccc2)=N1`: the “% Inhibition” value was -3% and the Z score is 0.51.
For the compound `O=C(Cc1ccccc1F)N[C@H]1CCN(c2nccn3cnnc23)C1`, the “% Inhibition” value was -18% and the Z score came out at 2.36.
For `Cc1ncc(S(=O)(=O)NC(=O)C[C@@]2(C)CC2(Cl)Cl)s1`, in that order: 2% and -0.3.
The matching figures for `COc1ccc(Cc2nc(Cn3cnc4ccccc4c3=O)no2)cc1`: -7% and 0.85.
`Cn1c(COc2ccccc2-c2nccs2)nnc1C1CC1`: the “% Inhibition” value was -12% and the Z score is listed as 0.98.
The matching figures for `Cc1nc(NC(=O)Nc2cc([C@H]3CCCOC3)[nH]n2)sc1C`: -5% and 0.43.
The matching figures for `Cn1cc(S(=O)(=O)NCc2ccccc2)c2cccnc21`: 5% and -0.93.
In the case of `CN(C(=O)c1ccc(N2CCOCC2)nn1)c1ccccc1`, the “% Inhibition” value is listed as -4% and the Z score was found to be 0.67.
In the case of `O=C1CC[C@@H]2CN(C(=O)c3cncnc3C3CC3)c3cccc1c32`, the “% Inhibition” value was -7% and the Z score is recorded as 1.26.
The matching figures for `CC(C)c1cc(CNC(=O)N2CCCC[C@H]2c2cccc(F)c2)no1`: 23% and -4.62.
In the case of `Cc1nc(NC(=O)NC2CCC(C)(O)CC2)nn1C` (configuration not stated), the “% Inhibition” value is recorded as -7% and the Z score is 0.92.
Take `COC1CN(c2ncnc3ccccc23)C1`: the “% Inhibition” value is recorded as -8% and the Z score was found to be 0.87.
Turning to `Cc1ccc(C#N)c(N2CCC3(CCC(=O)N(CCc4ccncc4)C3)CC2)n1`, the “% Inhibition” value is reported as -13% and the Z score came to 1.71.
As to `Cc1nc2c(s1)CCC[C@@H]2NC(=O)c1ocnc1C`, the “% Inhibition” value is -16% and the Z score is 2.46.
The matching figures for `Cc1cccc(-c2nc3c4ccccc4nc(NCc4ccc(F)cc4)n3n2)c1`: -9% and 1.66.
In the case of `C[C@@H]1CN(C[C@@H]2CN(Cc3ccc(Cl)c(F)c3)C[C@@H]2CO)C[C@H](C)O1`, the “% Inhibition” value is on record as -5% and the Z score is 0.79.
For the compound `CCN1CN(C(=O)N[C@@H](C)CCC(C)C)CC1=O`, the “% Inhibition” value is -3% and the Z score turned out to be 0.26.
The matching figures for `Nc1ccc(Oc2ccc(-c3cn[nH]c3)cc2)nc1`: -5% and 0.49.
For `N#Cc1c(-c2cccnc2)cc(-c2ccccc2OCC(N)=O)nc1N`, in that order: -4% and 0.76.
The matching figures for `C=CCC(CO)Nc1ccnc(NC(CO)CC=C)n1` (configuration not stated): -1% and 0.22.
As to `COc1ccc(Cl)cc1C(=O)N1CCn2nnc(CO)c2C1`, the “% Inhibition” value is recorded as -2% and the Z score was 0.3.
For `Cc1nnc(Oc2cccc(Cl)c2)c2ccccc12`, in that order: -11% and 1.01.
As to `O=C(COc1ccc(Cl)cc1Br)N(C1CCCC1)[C@H]1CCS(=O)(=O)C1`, the “% Inhibition” value is -4% and the Z score is recorded as 0.94.
Take `CCN(CC)C(=O)Nc1cc(OC)c(OC)cc1Br`: the “% Inhibition” value is recorded as -8% and the Z score is recorded as 1.19.
As for `CCn1cnnc1CN(C)Cc1[nH]nc(C)c1Cl`, the “% Inhibition” value is recorded as -7% and the Z score is recorded as 1.39.
For `Cc1csc([C@H](C)NS(=O)(=O)CCc2scnc2C)n1`, the “% Inhibition” value amounted to 6% and the Z score was -0.58.
The matching figures for `CCn1cc(C(=O)NCc2cccnc2Oc2ccc(F)cc2F)cn1`: -8% and 1.58.
For `O=C(Nc1nc2c(s1)CCCCCC2)[C@H]1CCS(=O)(=O)C1`, in that order: -7% and 0.83.
For `CCCN(CC(=O)O)C(=O)c1cc(F)c(C)cc1F`, in that order: -8% and 0.86.
`O=c1c2ccccc2ncn1C[C@H]1CC[C@H](C(=O)Nc2ccc(Cl)cc2Cl)CC1`: the “% Inhibition” value is listed as -9% and the Z score is 1.32.
The matching figures for `COc1ccc(Cn2cc([C@H](CC(N)=O)c3ccc(OCc4ccccc4)c(OC)c3)c3ccccc32)cc1`: -8% and 1.21.
For `O=C(CN1CCCC1)N(c1ccccc1)C1CCCCC1`, in that order: 21% and -2.68.
The matching figures for `CN(C)CCN(Cc1ccco1)C(=O)N[C@H]1CCc2c(F)cccc21`: 5% and -0.45.
Turning to `Cc1ccc(-c2cn[nH]c2[C@H]2CCCN(C(=O)c3nccn3C)C2)cc1`, the “% Inhibition” value was -14% and the Z score worked out at 1.8.
For `CNCc1cc(Cl)c(O)c(Cl)c1`, in that order: -1% and 0.14.
As to `Nc1nonc1-n1nnc(C(=O)c2ccccc2)c1-c1ccccc1`, the “% Inhibition” value is -8% and the Z score was determined as 1.55.
In the case of `CC(C)Nc1ncc(-c2nc(C3CCOCC3)n[nH]2)cn1`, the “% Inhibition” value came out at 4% and the Z score is -0.69.
As for `C[C@H](NC(=O)c1ccc(O)nc1)c1ccc(OCc2cccnc2)cc1`, the “% Inhibition” value is given as 2% and the Z score was -0.34.
With `CC(=O)NCCC(=O)NC[C@H]1CC[C@H](CO)CC1`, the “% Inhibition” value is recorded as -5% and the Z score was determined as 0.6.
The matching figures for `N#CC1(c2nc([C@H]3CC(=O)N(CC4CCC4)C3)no2)CCC1`: 17% and -2.2.
Turning to `CCNC(=O)N1CCN(c2nc3ccccc3c3nnc(-c4ccccc4C)n23)CC1`, the “% Inhibition” value was -6% and the Z score is on record as 0.93.
The matching figures for `Cc1cc(C)cc(C2CCN(C(=O)C3CCOC3)C2)c1` (configuration not stated): -13% and 1.98.
For `CCOC(Cn1cc(C(=O)Nc2nc(C)cs2)nn1)OCC`, in that order: 6% and -0.76.
The matching figures for `C[C@H]1CCn2c(nc3cc(C(=O)NCc4ccco4)ccc32)C1`: -9% and 1.22.
In the case of `COC(=O)[C@H](C)NC(=O)c1cc(C)c(C)cc1Cl`, the “% Inhibition” value is given as -12% and the Z score is 1.36.
For the compound `COCC(=O)N(CCN1CCOCC1)Cc1csc(COc2cccc(C)c2C)n1`, the “% Inhibition” value is recorded as 10% and the Z score is recorded as -1.26.
For `CN(C)c1ccc([C@@H](CNC(=O)C2CCCC2)c2c[nH]c3ccccc23)cc1`, in that order: 1% and -0.11.
For `Cc1cnn(C)c1S(=O)(=O)N1CCC=C(c2cnn(C)c2)C1`, in that order: 11% and -2.09.
For `CCN(C(=O)Nc1cccn(Cc2ccc(F)cc2)c1=O)[C@H]1CCN(Cc2ccccc2)C1`, in that order: 1% and -0.11.
For `CCc1ncc(-c2cc(C(=O)N(CC)C(C)C)c3c(C)cc(C)cc3n2)cn1`, the “% Inhibition” value is reported as 6% and the Z score is reported as -0.82.
For `CCCC(=O)Nc1ccc(CNC(=O)c2cccc[n+]2[O-])cc1`, in that order: -11% and 1.43.
`Cc1cc(C)c(CNC(=O)N(C)Cc2c(C)noc2C)c(=O)[nH]1`: the “% Inhibition” value is given as -12% and the Z score stood at 1.55.
For `CCNc1ccc(Br)cc1C(=O)O`, in that order: -11% and 1.65.
In the case of `Cc1csc(-c2cc(NC(=O)c3ccc(C(C)(C)C)cc3)c(C)s2)n1`, the “% Inhibition” value was found to be 7% and the Z score was -0.78.
The matching figures for `CCOC(=O)c1c(N)c2cccnc2n1C`: -7% and 1.43.
The matching figures for `Cc1ccc(N2CN(CC(=O)NC3CCCC3)S(=O)(=O)c3cccnc32)cc1`: -12% and 1.29.
For `COc1ccc(OC)c(S(=O)(=O)N[C@H]2CO[C@H]3[C@@H]2OC[C@@H]3Nc2nccc(-c3ccco3)n2)c1`, in that order: 4% and -0.45.
As for `COc1cc(-c2cnc(N)cc2C)c(Cl)cn1`, the “% Inhibition” value turned out to be 5% and the Z score is recorded as -0.65.
The matching figures for `CN(C)c1cc(C(=O)Nc2[nH]ncc2-c2cccc(Cl)c2)ccn1`: -3% and 0.42.
For `Cc1ccc2nc(O)c(CCC(=O)NCc3cccnc3)cc2c1`, in that order: -1% and 0.11.
The matching figures for `CN1C(=O)NC(C)(C2CCCN(CC(O)c3cccc(F)c3)C2)C1=O` (configuration not stated): -2% and 0.3.
Take `CN(Cc1ccncc1)Cc1csc(-c2cccs2)n1`: the “% Inhibition” value stood at 1% and the Z score is given as -0.18.
Turning to `CC(C)CN1CCN(S(=O)(=O)c2cc(Cl)sc2Cl)CC1`, the “% Inhibition” value was -11% and the Z score was 1.38.
For `Cc1nc2ccc(N3C[C@@H](C(N)=O)CC3=O)cc2s1`, in that order: -7% and 0.97.
Consider `COc1ccc(CC(=O)n2nc(-c3cccc(C)c3)nc2N)cc1OC`, for which the “% Inhibition” value is given as -9% and the Z score was 1.53.
On to `N#CCNC(=O)CC[C@@H](Cc1ccc(Cl)cc1)C(=O)NCC#N`, for which the “% Inhibition” value was -1% and the Z score is on record as 0.21.
As for `COC(=O)CCN(C(=O)c1cccc(NC(=O)OC)c1)C1CCOCC1`, the “% Inhibition” value is -9% and the Z score is 1.18.
Take `c1ccc(C2(c3nc(C[C@H]4CCCO4)no3)CC2)cc1`: the “% Inhibition” value was -9% and the Z score was 1.1.
Turning to `CCn1cc(CN2CCCC23CCN(c2cccc(C)n2)CC3)cn1`, the “% Inhibition” value stood at 2% and the Z score was -0.37.

Values taken from ChEMBL document CHEMBL4888484, “Replenishing the malaria drug discovery pipeline: Screening and hit evaluation of the MMV Hit Generation Library 1 (HGL1) against asexual blood stage Plasmodium falciparum ,using a nano luciferase reporter read-out” (2022).
